In patent US20230250147A1, “GLP-1R AGONISTIC PEPTIDES WITH REDUCED ACTIVITY” (SANOFI, priority 2020, published 2023):

T1: Mouse GLP-1R (Mus musculus, UniProt O35659)
T1 construct: expressed in transfected cells; host or cells: HEK-293
T1 sequence (O35659 22-463): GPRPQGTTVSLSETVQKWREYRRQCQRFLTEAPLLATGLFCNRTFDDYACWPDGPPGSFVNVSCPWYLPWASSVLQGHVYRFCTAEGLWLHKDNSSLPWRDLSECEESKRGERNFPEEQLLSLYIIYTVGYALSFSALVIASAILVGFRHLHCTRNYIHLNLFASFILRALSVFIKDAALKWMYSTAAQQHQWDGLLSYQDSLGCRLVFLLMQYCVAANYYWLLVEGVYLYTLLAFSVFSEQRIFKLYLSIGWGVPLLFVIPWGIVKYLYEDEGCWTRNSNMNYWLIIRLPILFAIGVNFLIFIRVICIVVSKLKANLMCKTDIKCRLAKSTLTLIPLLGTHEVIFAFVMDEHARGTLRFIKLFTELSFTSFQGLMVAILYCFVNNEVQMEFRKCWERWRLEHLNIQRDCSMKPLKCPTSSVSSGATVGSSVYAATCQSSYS

B1: 30 (protein)
chain: HGEGTFTSDLSILLDEEAVREFIEWLLATGPVSGAPPPSGGGGGGGSGGGGSGGGGSA[… human IgG4 Fc with changes …]GGGSGSAHPIPDSSPLLQFGGQVRQRYLYTDDACQTEAHLEIREDGTVGGAADQSPESLLQLKALKPGVIQILGVKTSRFLCQRPDGALYGSLHFDPEACSFRELLLEDGYNVYQSEAHGLPLHLPGCKSPHRDPAPRGPARFLPLPGLPPAPPEPPGILAPQPPDVGSSDPLSMVGSQGRSPSYAS
modifications: Fusion Protein
B2: 31 (protein)
chain: HGEGTFTSDLSILLDEEAVREFIEWLLATGPVSGAPPPSGGGGGGGSGGGGSGGGGSA[… human IgG4 Fc with changes …]GGGSGSAHPIPDSSPLLQFGGQVRQRYLYTDDACQTEAHLEIREDGTVGGAADQSPESLLQLKALKPGVIQILGVKTSRFLCQRPDGALYGSLHFDPEACSFRELLLEDGYNVYQSEAHGLPLHLPGCKSPHRDPAPRGPARFLPLPGLPPAPPEPPGILAPQPPDVGSSDPLSMVYPSQGRSPSYAS
modifications: Fusion Protein
B3: 42 (protein)
chain: HGEGTFTSDLSIQLDEEAVRLFIEWLLATGPVSGAPPPSGGGGGGGSGGGGSGGGGSA[… human IgG1 Fc with changes …]GGGSGSAHPIPDSSPLLQFGGQVRQRYLYTDDACQTEAHLEIREDGTVGGAADQSPESLLQLKALKPGVIQILGVKTSRFLCQRPDGALYGSLHFDPEACSFRELLLEDGYNVYQSEAHGLPLHLPGCKSPHRDPAPRGPARFLPLPGLPPAPPEPPGILAPQPPDVGSSDPLSMVGSQGRSPSYAS
modifications: Fusion Protein
B4: 43 (protein)
chain: HGEGTFTSDLSILLDEEAVRLFIEWLLATGPVSGAPPPSGGGGGGGSGGGGSGGGGSA[… human IgG1 Fc with changes …]GGGSGSAHPIPDSSPLLQFGGQVRQRYLYTDDACQTEAHLEIREDGTVGGAADQSPESLLQLKALKPGVIQILGVKTSRFLCQRPDGALYGSLHFDPEACSFRELLLEDGYNVYQSEAHGLPLHLPGCKSPHRDPAPRGPARFLPLPGLPPAPPEPPGILAPQPPDVGSSDPLSMVGSQGRSPSYAS
modifications: Fusion Protein
B5: 44 (protein)
chain: HGEGTFTSDLSIQLDEEAVRLFIEWLEATGPVSGAPPPSGGGGGGGSGGGGSGGGGSA[… human IgG1 Fc with changes …]GGGSGSAHPIPDSSPLLQFGGQVRQRYLYTDDACQTEAHLEIREDGTVGGAADQSPESLLQLKALKPGVIQILGVKTSRFLCQRPDGALYGSLHFDPEACSFRELLLEDGYNVYQSEAHGLPLHLPGCKSPHRDPAPRGPARFLPLPGLPPAPPEPPGILAPQPPDVGSSDPLSMVGSQGRSPSYAS
modifications: Fusion Protein
B6: 45 (protein)
chain: HGEGTFTSDLSIQLDEEAVRLFIEWLEATGPVSGAPPPSGGGGGGGSGGGGSGGGGSA[… human IgG1 Fc with changes …]GGGSGSAHPIPDSSPLLQFGGQVRQRYLYTDDACQTEAHLEIREDGTVGGAADQSPESLLQLKALKPGVIQILGVKTSRFLCQRPDGALYGSLHFDPEACSFRELLLEDGYNVYQSEAHGLPLHLPGCKSPHRDPAPRGPARFLPLPGLPPAPPEPPGILAPQPPDVGSSDPLSMVYPSQGRSPSYAS
modifications: Fusion Protein
B7: 46 (protein)
chain: HGEGTFTSDLSILLDEEAVREFIEWLLATGPVSGAPPPSGGGGGGGSGGGGSGGGGSA[… human IgG1 Fc with changes …]GGGSGSAHPIPDSSPLLQFGGQVRQRYLYTDDACQTEAHLEIREDGTVGGAADQSPESLLQLKALKPGVIQILGVKTSRFLCQRPDGALYGSLHFDPEACSFRELLLEDGYNVYQSEAHGLPLHLPGCKSPHRDPAPRGPARFLPLPGLPPAPPEPPGILAPQPPDVGSSDPLSMVGSQGRSPSYAS
modifications: Fusion Protein
B8: 47 (protein)
chain: HGEGTFTSDLSKQLEEEAVQLFIEWLLATGPSSGKPPPKSGGGGGGGSGGGGSGGGGSA[… human IgG4 Fc with changes …]GGGSGSAHPIPDSSPLLQFGGQVRQRYLYTDDACQTEAHLEIREDGTVGGAADQSPESLLQLKALKPGVIQILGVKTSRFLCQRPDGALYGSLHFDPEACSFRELLLEDGYNVYQSEAHGLPLHLPGCKSPHRDPAPRGPARFLPLPGLPPAPPEPPGILAPQPPDVGSSDPLSMVYPSQGRSPSYAS
modifications: Fusion Protein
B9: 48 (protein)
chain: HGEGTFTSDLSKQLEEEAVQLFIEWLLATGPSSGKPPPESGGGGGGGSGGGGSGGGGSA[… human IgG4 Fc with changes …]GGGSGSAHPIPDSSPLLQFGGQVRQRYLYTDDACQTEAHLEIREDGTVGGAADQSPESLLQLKALKPGVIQILGVKTSRFLCQRPDGALYGSLHFDPEACSFRELLLEDGYNVYQSEAHGLPLHLPGCKSPHRDPAPRGPARFLPLPGLPPAPPEPPGILAPQPPDVGSSDPLSMVYPSQGRSPSYAS
modifications: Fusion Protein
B10: 49 (protein)
chain: HGEGTFTSDLSKQLEEEAVQLFIEWLLATGPSSGEPPPKSGGGGGGGSGGGGSGGGGSA[… human IgG4 Fc with changes …]GGGSGSAHPIPDSSPLLQFGGQVRQRYLYTDDACQTEAHLEIREDGTVGGAADQSPESLLQLKALKPGVIQILGVKTSRFLCQRPDGALYGSLHFDPEACSFRELLLEDGYNVYQSEAHGLPLHLPGCKSPHRDPAPRGPARFLPLPGLPPAPPEPPGILAPQPPDVGSSDPLSMVYPSQGRSPSYAS
modifications: Fusion Protein

These molecules were tested against T2, Monkey GLP-1R (Macaca fascicularis, UniProt F8V479) (assay: HTRF cAMP assay in HEK-293 cells, monkey GLP-1R).
T2 construct: expressed in transfected cells; host or cells: HEK-293
T2 sequence (F8V479 24-463): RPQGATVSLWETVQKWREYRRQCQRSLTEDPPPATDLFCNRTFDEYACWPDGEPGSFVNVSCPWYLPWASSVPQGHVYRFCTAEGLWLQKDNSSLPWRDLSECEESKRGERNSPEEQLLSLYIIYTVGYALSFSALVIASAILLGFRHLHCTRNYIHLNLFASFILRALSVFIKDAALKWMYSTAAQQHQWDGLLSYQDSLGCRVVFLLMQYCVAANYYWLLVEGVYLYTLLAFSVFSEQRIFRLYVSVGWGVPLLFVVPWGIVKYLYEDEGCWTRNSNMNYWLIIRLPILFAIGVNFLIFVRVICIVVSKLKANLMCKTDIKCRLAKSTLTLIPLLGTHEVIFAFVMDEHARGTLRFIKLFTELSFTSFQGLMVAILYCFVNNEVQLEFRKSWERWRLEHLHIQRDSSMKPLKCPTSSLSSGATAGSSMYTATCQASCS
Assay type: cell-based
Procedure: Recombinant HEK-293 cells were grown in T175 culture flasks placed at 37° C. to near confluence in medium (DMEM with 10% FBS) and collected in 2 mL vials in cell culture medium containing 10% DMSO in concentrations of 1-5×10^7 cells/mL. Each vial contained 1.8 mL cell suspension. The vials were slowly frozen to −80° C. in an isopropanol chamber, and then transferred to liquid nitrogen for long term storage.
Prior to their use, frozen cells were thawed quickly at 37° C., washed with 20 mL cell buffer (1×HBSS; 20 mM HEPES, 0.1% BSA) and centrifuged for 5 minutes at 900 rpm. Cells were resuspended in assay buffer (cell buffer plus 2 mM IBMX) and adjusted to a cell density of 1×10^6 cells/mL. For measurement, 5 μL cell suspension (final 5×10^3 cells/well) and 5 μL of test compound were added to a well of a 384-well plate, followed by incubation for 30 minutes at room temperature. […] The cAMP content of cells was determined using a kit from Cisbio Corp. (cat. no. 62AM4PEC) based on Homogenous Time Resolved Fluorescence (HTRF).
Work on B1 yielded an EC50 of 0.0733 nM. For B2, the EC50 was 0.0628 nM. For B3, the EC50 was 0.0222 nM. Molecule B4 has an EC50 of 0.0174 nM. B5 showed an EC50 of 0.174 nM. B6 gave an EC50 of 0.0604 nM. For B7, the EC50 was 0.0114 nM. For B8, the EC50 was 0.0356 nM. B9 gave an EC50 of 0.0606 nM. With B10 the EC50 was 0.0422 nM.

Each molecule was assayed against T1, Mouse GLP-1R (assay: HTRF cAMP assay in HEK-293 cells, mouse GLP-1R).
Assay type: cell-based
With B1 the EC50 was 0.125 nM. B2 gave an EC50 of 0.113 nM. Molecule B3 has an EC50 of 0.0432 nM. For B4, the EC50 was 0.0315 nM. For B5, the EC50 was 0.325 nM. In the case of B6, the EC50 is reported as 0.492 nM. With B7 the EC50 was 0.0179 nM. For B8, the EC50 was 0.00664 nM. B9 gave an EC50 of 0.0101 nM. B10 gave an EC50 of 0.00665 nM.

Each molecule was assayed against T3, Human GLP-1R (Homo sapiens, UniProt P43220) (assay: HTRF cAMP assay in HEK-293 cells, human GLP-1R).
T3 construct: expressed in transfected cells; host or cells: HEK-293
T3 sequence (P43220 24-463): as the sequence (F8V479 24-463) above, with N112S, S120F, G202S, V205L, F237L, R241W, V249I counted along it
Assay type: cell-based
With B1 the EC50 was 0.042 nM. Work on B2 yielded an EC50 of 0.0323 nM. Molecule B3 has an EC50 of 0.0181 nM. Molecule B4 has an EC50 of 0.0137 nM. Molecule B5 has an EC50 of 0.126 nM. For B6, the EC50 was 0.0482 nM. In the case of B7, the EC50 is reported as 0.00847 nM. For B8, the EC50 was 0.017 nM. Work on B9 yielded an EC50 of 0.0357 nM. In the case of B10, the EC50 is reported as 0.0234 nM.
